# Source: the supplement of paper PMC11417369
# The other results are listed elsewhere or left out.
# Test system: PfHDP1 homeodomain (GST-tagged)
# Test: gcPBM binding intensity (ln(normalized median fluorescence intensity)); higher = stronger DNA binding
# Summary of the method: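 GST-tagged P. falciparum DNA-binding domains produced in E. coli were incubated for 1 h on an Agilent 4 × 180k array of primer-extended double-stranded 36-bp intergenic genomic probes with negative controls. Binding intensity is the highest Masliner-normalised natural-log median intensity across replicate spots of either probe orientation, with bound protein detected by Alexa488 anti-GST antibody at 488 nm.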
row,Sequence,gcPBM binding intensity (ln)
1,ATAACTTTTGCGCGTACACACATTTATCCTCTTTAT [CACACA_site209],8.29
2,TCATGTAGTAAAAACTGTACAAATTATTTATCATGT [XGTACX_site1727],6.53
3,GGGTATACCAATATAACACACATATATATATAATAT [CACACA_site450],6.69
4,ATAAGCATACATATTACACACATATAACATCTATAT [CACACA_site7219],6.97
5,AAATTATTAAAAAAGTGTACATATTTTTATAATACC [XGTACX_site5610],6.35
6,TATTTTTTTTCAAAAAAGTTTATTTAGAACTAAATA [XGTACX_negctrl_site487],5.79
7,TTAATCAAATTACTATGTACATAAAACATATAAGAA [XGTACX_site381],6.85
8,ATAAATTGATTCAACACACACATATGTAGGAAGTTA [CACACA_site3253],6.61
9,AAAAAAAAAAAAAGTACACACATACAGATAAATATA [CACACA_site5067],6.46
10,CTTTTTCTTTTCCGGCGTACAGACTTAGTAGTAGAT [XGTACX_site2268],6.69
11,ACTAATACATAAAAAAGTACAAATATGAGTATTAAC [XGTACX_site7281],6.94
12,AATATTCAATATAAAGTGCATTATTGTGGACCTAAT,8.94
13,TATATAGCTAAAAACACACAAATATGTACACATAAA [CACACA_site7665],6.83
14,TACATGCAAAAAATTCCACACACACCCCCACATATA [CACACA_site8329],7.49
15,TACTTCATTCATTTTACACACATATAAACCCTTTTA [CACACA_site3229],7.15
16,TAAAATATAGGAAATACATGCATATTAAATATTCCT [TGCATGCA_site1057],6.11
17,ATAGTTAAAAAAAAAAAAAAAAAAAAAAGAGAGAGA [CACACA_negctrl_site1307],6.36
18,ACAATAAAGAACAGTATGCACTTTTATGCATGCGTA,7.42
19,AAATATACATACATATGTACATATATATATATATAT [XGTACX_site8202],9.24
20,ATGAATTAATCTAATCGTACAATAAGCATTATTATA [XGTACX_site2571],6.25
21,GAATATGTAAAGAAAGGTACACATGAAAATATGTGT [XGTACX_site446],6.09
22,TGTACCTACAAAATATGATATATTTTTATAAATTGT [XGTACX_negctrl_site498],6.41
23,TAGAAAATCAGTTAAACACACACATAAAAAAAAAAA [CACACA_site8933],6.4

row,Sequence,gcPBM binding intensity (ln)
1,TTCTTATTTGTACTAGTGCAATAGAAAATAAATAAA [GTGCAC_site9731],9.74
2,TATATAATATATATATGTACACATTTGCAAACAATG [XGTACX_site6941],8.64
3,AATACAATAAAAAAAAGTACACATGTATAAAAAATT [XGTACX_site8270],6.85
4,AATATATCTTATTTAACACACACAAAGAAAATAGAA [CACACA_site9242],7.34
5,TGTTATCAGAAAGCACGTACATATAATTATATATTC [XGTACX_site4188],6.73
6,TATATATATATACATACATGCATATATATATATATA [TGCATGCA_site513],9.41
7,ATAATAATATAAAATACACACCTATTATTTTTACAA [CACACA_site6069],6.72
8,CCACATATACAAAACACACACACAACGTTTTAATAA [CACACA_site1978],6.84
9,ACAAGAGAAGTAATTGCACACGTTGTTTCTTTTTCT [CACACA_site35],9.23
10,TCACTATAGTAATTTACACACATTTGAAGAAAATGT [CACACA_site7626],6.58
11,ATTATTTAGAAATGAGCACACAAAAAGAAGAATTTT [CACACA_site7913],7.06
12,TATTTATTTATTTATGCATGCATGAATAATTTTTAC [TGCATGCA_site31],6.73
13,GAAAACATTAAAAGTTAGATCATAAGAAAAGAATAT [GTGCAC_negctrl_site726],6.62
14,CATATATGTGATAACACGCACACAAATGTATAGAAT [CACACA_site2594],6.81
15,GTTCATCACATATACACATGCATATTCTAATATGTA [TGCATGCA_site809],7.25
16,ACATTATATAAAATATGTACATATAAAAAATTCTAT [XGTACX_site1617],6.63
17,TTATCATTTGGACACGCACACACACCGAAAAAGAAA [CACACA_site8008],7.13
18,AATAATTTAAGGAATACACACAAGAAAAAAATAAGA [CACACA_site60],7.43
19,TTTTTGTAATTATATTAATATATATATATATATATA [CACACA_negctrl_site198],9.1
20,TTTTTTGCTAAAAAGAGTACTAATAAAAAATTTATT [XGTACX_site5235],6.02
21,ATATTTGTAATTATTAAACACACACTAATTATATAT [CACACA_site8803],6.72
22,TTTTATGAAAAATGGCTTATCTGTAAAGAAGTGGAG [CACACA_negctrl_site1586],6.59
23,ATAAAGAAAATATGGAGTACATTTATATCCAATATA [XGTACX_site3085],6.29

row,Sequence,gcPBM binding intensity (ln)
1,AAATATATACTACCGATGCACTAAATATAAACACAT [GTGCAC_site9777],7.53
2,TTAATTTTTGAAGGTACACACTAATATATTAAATAT [CACACA_site4791],6.62
3,TTATCCCCCTATCATTGTACATTAATACAAACTAAA [XGTACX_site5630],7.64
4,AAAATGAAACAAATATGTACACATATAAATATTTCC [XGTACX_site54],6.25
5,AAAACAGACAAACACACACACACATATATATATATA [CACACA_site3393],9.2
6,CTTTTAATTATAAAATGTACTTAAAAATAATAATAC [XGTACX_site635],6.2
7,TTTTAAATTTTTTAAAGTACACGTCGAAAAGGTATA [XGTACX_site76],6.99
8,AAGAATTATATATTCACACAAAAAAAAAGTAAAAGA [CACACA_site5335],6.6
9,AATATATTAAATCTTACACACTAAAAAATATGTAAC [CACACA_site4325],5.96
10,TGTTTAACACATGTTTCAAACAAAAAAAAAAAGACA [CACACA_negctrl_site1356],6.54
11,AAAAAAAAAAAAAAGAGTACATTTATTTATATATCT [XGTACX_site2381],6.09
12,TTTTAACATAGAAGTACACACATATAATCAATCATA [CACACA_site5313],6.46
13,TATAATATATATATATGTACATATTATTTACATATA [XGTACX_site7312],6.76
14,AAATATTTTTTAATTGTTCACTTGGTGGATCATTAA [CACACA_negctrl_site922],6.13
15,TATCCATTATTTAAAAGTACAAAAAACGATTTACAC [XGTACX_site2979],6.42
16,TATTATATATATGGAAGTACAGGTATATCGTTTTTC [XGTACX_site3771],6.38
17,TTTTTTTTTCGCTTTTGTACACATTTTATAGAACAG [XGTACX_site2416],7.04
18,TTTTCCCTTAACCTCTGTACATATAATTTTCTTTCC [XGTACX_site4180],7.01
19,TTAAAAAAAAATAAAGGTACACGGAGAAATCCTTTT [XGTACX_site7509],6.04
20,ATATATTTATTATTAGGTACACATATATATATATAT [XGTACX_site5045],9.29
21,TGTAGTAATGCTTATTGTACATATACATTTCTTACA [XGTACX_site219],6.57
22,TTATATAGAATTAATTTCTTTTTTTTCTTTTTTAAA [CACACA_negctrl_site1308],5.83
23,AACCACCACACCATCACACATAAGATTAGACGAGTA [CACACA_site6063],6.71

row,Sequence,gcPBM binding intensity (ln)
1,ATTTTTTTTTTTTTTTCATGAAATTTTTTTTTTTTT [CACACA_negctrl_site1069],5.9
2,TGCTTTTCTTTTTGCACACTTATGCATATATATATA [CACACA_site2583],10.8
3,AAATAAGAAAAAGCGCGTACACATAACATTTTTATA [XGTACX_site8807],6.32
4,TGTATTCTCTTAGTAGTGCATTTGAAGATTATATAA,8.81
5,TTTATTCAAGGAATAGTGCATAATAATAAGTATTAT,8.21
6,TCTAATGATATATACACACACATATAGATTTATATA [CACACA_site7044],6.86
7,ATTTTTCTAAAATACTGTACAAAGGTGCATAAAAAG [XGTACX_site4425],11.1
8,TTTTCTGTTTTCATTACACACCTTACAAGAACAATA [CACACA_site2158],7.08
9,ATATTTATGGAATATACACACATGTATAATTATATA [CACACA_site2033],6.51
10,TAGAATATGTTTAGTTGTACAAAACAAAATGGAATT [XGTACX_site5293],6.39
11,ATTTATTTTTTGTGTTCACACATTAGTATCATCTAT [CACACA_site5274],6.19
12,CACATAAAAAAATAAACACACATATGTATATATATA [CACACA_site3177],7.91
13,TAATATATGTATATATGTACATATAAATGTTATAGA [XGTACX_site2721],6.6
14,TTGGTATAAAATTATAGTACATAAGGTAAATATAAA [XGTACX_site4698],6.41
15,GATGTTCATCACTACACACACAAAGAAATATATATA [CACACA_site2684],6.94
16,TTGTATTTCCTTAGGAGTACACATAAATAAGTAAAT [XGTACX_site6677],6.63
17,AAAGAAAAAAAATATAAAAAATAAAAAATAAAACAA [CACACA_negctrl_site374],6.57
18,TAAAAATTATATATCACACATATATGTCAGTATACA [CACACA_site4624],6.41
19,ATTTATATGTGGAGCAGTACGCACTCTCACAATTAA [XGTACX_site7252],7.14
20,CTTCTCTTTTTTATCATGCACTTTTTGTATAATAAT [GTGCAC_site9834],7.84
